# Results: the supplement of paper PMC4466236
# In all, about 33,000 sequences were measured (“E-score (dimensionless, -0.5 to 0.5)”: median about -0.058, highest 2% from about 0.35 on). The list shows a part of the results.
# System: MvaT
# Experiment: PBM 8-mer E-score (mean of HK and ME arrays) (E-score (dimensionless, -0.5 to 0.5)); higher = stronger relative binding preference; most listed sequences are background and not binding sites
# In short: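 Full-length P. aeruginosa MvaT carrying an N-terminal glutathione S-transferase tag was tested by protein binding microarray following a previously described protocol. Two universal double-stranded 60-mer arrays, ME and HK, were used, each with a constant 25-mer primer region and a variable 35-mer region covering all 8-mers. The rank-based E-score is the mean of the two arrays, parsed with a custom script. Its range runs from -0.5 to 0.5 for each 8-mer.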
row,Sequence,PBM 8-mer E-score
1,ACATAATG,0.302
2,ATAATTAC,0.378
3,ACGATAAT,0.287
4,CTGCGAAC,0.0125
5,AAGGACAG,-0.0705
6,GTTAGGTA,0.0901
7,ATATCGTA,0.207
8,ACAGGAGG,-0.164
9,GCGACGGA,-0.0994
10,ATAGAGCC,-0.0815
11,AGATATAC,0.155
12,AATGGAGG,-0.186
13,CGATATTC,0.202
14,AATACATG,0.224
15,ACCTCTAA,0.000331
16,AGGCTGGG,-0.266
17,ACGACCAG,-0.219
18,TGTATTAA,0.39
19,AGCATTAA,0.208
20,CTGTGGTC,-0.194
21,CTATCAGA,-0.115
22,ACGCGCGC,-0.0641

row,Sequence,PBM 8-mer E-score
1,AAACCCCA,-0.173
2,TCGAACCA,-0.00703
3,CGTCGTCA,-0.0726
4,GAATCATC,-0.112
5,CATCTGAA,-0.00389
6,AGTCAGGC,-0.173
7,GCAAGAGA,-0.144
8,GGCGGTTA,-0.177
9,GCTCGTAC,-0.0924
10,ACCGATTC,-0.156
11,CCGGAACG,-0.242
12,AAGGATCT,-0.168
13,AGCAGGAA,-0.195
14,ATAGACTG,0.0341
15,CGAAACTC,-0.0967
16,ATCCGAAT,0.0444
17,CTGTGATA,0.143
18,AGTAGACG,-0.121
19,ACGCTATC,-0.15
20,AATACTAC,0.271
21,CCTCCGTC,-0.266
22,GAAGTGTA,0.218

row,Sequence,PBM 8-mer E-score
1,CCCAGGAC,-0.177
2,GATTCCAA,-0.0728
3,GCGTGCCA,-0.237
4,ATACTATC,0.237
5,TATGACCA,-0.0439
6,CGTGTAAG,-0.0124
7,ACAGGAGC,-0.145
8,AACCTCTA,-0.0272
9,CTGTTTTC,0.0105
10,AGGTTGAG,-0.177
11,TGTCCGAA,-0.0954
12,ATAATGAC,0.326
13,CTGCGCCA,-0.0838
14,AACTTCGC,0.26
15,CTTACTCA,0.0388
16,AGCTCAAT,-0.169
17,AGTAGAGC,-0.132
18,GTGCGGTA,-0.0966
19,CCAGCAGG,-0.279
20,AGGTCTGC,-0.272
21,ATAGAAAC,0.0947
22,AACGTATC,0.1

row,Sequence,PBM 8-mer E-score
1,CCGGTACC,-0.202
2,AACTGGAG,-0.107
3,GTTTAAAC,0.406
4,ACAGGACG,-0.0421
5,GTAAGGAC,-0.0545
6,GTAACGGA,0.0141
7,AAGAGCTT,-0.115
8,ACGGATGC,-0.159
9,TGGATCAA,-0.0646
10,GCATACCA,-0.104
11,ACCCCCGA,-0.346
12,ACCCATGA,-0.0853
13,GGACGTAA,0.0586
14,GGGAACTA,-0.0248
15,CACGGAGC,-0.202
16,CCAAATCA,0.0474
17,GAGCCCGC,-0.222
18,ATCGCATC,-0.116
19,GGCTCCAA,-0.166
20,AGAGTGGC,-0.265
21,GATGAAGA,-0.134
22,ATAGACCC,-0.172

row,Sequence,PBM 8-mer E-score
1,CAGTCGAC,-0.088
2,AGTCTGTA,-0.0134
3,AAACTAAA,0.357
4,ACAGCTAC,-0.15
5,CTAATGTA,0.23
6,GAAGAAAC,0.0632
7,GGCTAACC,-0.249
8,GCTCGTCA,-0.159
9,CATCGCTA,-0.108
10,TGTAAACA,0.0992
11,CCGGAAAG,-0.0519
12,ATAACGCA,0.266
13,GTAGGTAA,0.0597
14,TAACCACA,0.157
15,ACGGTCAT,-0.000811
16,CGGGAAAG,-0.177
17,ACATGTAC,0.243
18,CGCATTTC,0.0897
19,CTCTGACC,-0.287
20,CTTCTGTC,-0.223
21,AACGTGAA,0.148
22,GGTCATAC,-0.148
